# Laboratory results reported in PubChem BioAssay AID485344 (National Center for Advancing Translational Sciences (NCATS), 2010).
# In all, about 340,000 compounds went through this assay and about 6,900 (2%) were called active. No stated cut-off is given here; in the data, active means inhibition above about 30%; inactive means below that, where a call was filed. Only a part is listed here, and it is no random draw. Where no call is shown, the source filed none.
# Molecular target: D(2) dopamine receptor (Homo sapiens) (UniProt P14416)
# Chain of UniProt P14416 (P14416 whole entry, looked up): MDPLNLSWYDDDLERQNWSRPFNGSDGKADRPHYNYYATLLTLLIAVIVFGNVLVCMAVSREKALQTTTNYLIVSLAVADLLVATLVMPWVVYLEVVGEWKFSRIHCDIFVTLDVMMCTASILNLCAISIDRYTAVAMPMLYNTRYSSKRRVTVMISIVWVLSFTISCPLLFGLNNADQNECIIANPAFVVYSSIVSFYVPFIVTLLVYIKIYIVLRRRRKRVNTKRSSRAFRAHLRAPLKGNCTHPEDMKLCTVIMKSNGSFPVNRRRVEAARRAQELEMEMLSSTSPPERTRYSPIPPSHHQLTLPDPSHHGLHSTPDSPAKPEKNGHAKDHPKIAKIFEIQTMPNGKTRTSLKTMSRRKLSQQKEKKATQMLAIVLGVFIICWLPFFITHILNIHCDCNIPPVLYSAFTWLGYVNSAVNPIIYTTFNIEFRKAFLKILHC
# Experiment: HTS Assay for Allosteric Antagonists of the Human D2 Dopamine Receptor: Primary Screen for Antagonists; further: 0% is about no effect
# Conditions: HEK293 TREx D2 cells, calcium flux, dopamine EC80; at 10 µM; stronger effect = higher value
# How it was run: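 Overnight-induced (tetracycline, 30 C) HEK293 T-REx cells carrying force-coupled D2 receive a no-wash calcium dye, then compound, then EC80 dopamine at 180 s; signals are read kinetically throughout.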
row,SMILES,inhibition
1,Clc1ccc(N2CCN(c3ncnc4c3cnn4-c3ccccc3)CC2)cc1Cl,12.8%
2,COc1ccc(NC(=O)c2cc(S(=O)(=O)N3CCCCCC3)cn2C)cc1Cl,-10.6%
3,COc1ccc(CNC(=O)CCNS(=O)(=O)c2cccc3nsnc23)cc1,-6.2%
4,CCOc1ccccc1CNC(=O)c1ccc(NC(=O)N2CCSc3ncccc32)cc1,-12.1%
5,Fc1ccc(-n2ncc3c(N4CCC(Cc5ccccc5)CC4)ncnc32)cc1,-13.2%
6,COc1ccc2oc(=O)c(-c3cn4c(n3)sc3cc(OC)ccc34)cc2c1,-20.3%
7,COc1ccc(OC)c(CNC(=O)Cn2nc(C)c3nn(-c4ccc(Cl)cc4)c(C)c3c2=O)c1,1.82%
8,COc1ccc(/C=C/C(=O)Nc2nc3n(n2)C(c2ccccc2)C=C(c2ccc(Cl)cc2)N3)cc1 (stereo not drawn),-11.8%
9,COc1ccc2c(Sc3ccccc3)c(C(=O)NCCCN3CCCCC3)[nH]c2c1,14.1%
10,Cc1cccc(CCNC(=O)c2cnc3c(C)cccn3c2=O)c1,16%
11,CC(C)(C)c1ccc(S(=O)(=O)c2cn(CC(=O)Nc3ccccc3)c3ccccc3c2=O)cc1,4.14%
12,COc1ccccc1CNC(=O)Cc1csc2nc(-c3ccccc3)cn12,8.6%
13,Cc1ccc(CNC(=O)c2ccc3c(c2)N(Cc2ccccc2)C(=O)c2ccccc2S3(=O)=O)cc1,-25.4%
14,COC(=O)CN1C(c2ccc(OC)cc2)=Nc2ccc(Cl)cc2C1c1ccccc1 (stereo not drawn),active: 91.4%
15,O=C(Nc1nnc(S(=O)(=O)N2CCCc3ccccc32)s1)c1cccc(F)c1,-12.3%
16,COc1ccc(N(C(=O)c2cccc(C)c2)S(=O)(=O)c2ccc(C)cc2)cc1,-5.26%
17,COC(=O)C1CCN(CC(=O)Nc2cc(C)c3c(=O)oc4ccccc4c3n2)CC1,2.81%
18,Cc1cc(C)c(NC(=O)Cn2ccn(-c3cccc(Cl)c3)c(=O)c2=O)c(C)c1,-27.6%
19,O=C(CCC1N=C2c3ccccc3N=C(SCc3ccccc3F)N2C1=O)NCCc1ccccc1 (stereo not drawn),12.6%
20,CCn1c(SCc2ccc(F)cc2Cl)nnc1-c1nonc1NC(C)=O,-9.47%
21,Cc1ccc2c(c1)N(C(=O)C1CCN(S(=O)(=O)c3c(C)noc3/C=C/c3ccccc3F)CC1)CCO2,-15%
22,COc1ccc(N(Cc2cccs2)C(=O)c2ccc(C(C)(C)C)cc2)cc1,-4.53%
23,COc1cc2[nH]c(=O)n(Cc3ccc(C(=O)N4CCN(c5cc(Cl)ccc5C)CC4)cc3)c(=O)c2cc1OC,6.18%
24,O=C(NCC(c1ccc2c(c1)OCO2)N1CCOCC1)C(=O)Nc1ccc(F)cc1F (stereo not drawn),-11.8%

row,SMILES,inhibition
1,Cc1cc(NC(=O)CN2CC(C)OC(C)C2)n(-c2nc3ccccc3s2)n1 (stereo not drawn),active: 34.3%
2,O=C(CN1C(=O)CC(c2ccco2)Sc2ccccc21)Nc1ccc(C(F)(F)F)cc1 (stereo not drawn),-10.3%
3,O=C(Nc1cccc(Cl)c1)N1CCC(CN2CCOCC2)CC1,-1.83%
4,CCOC(=O)c1nc(Nc2ccccc2OC)c2ccccc2n1,-18.5%
5,Cc1cn2c(=O)cc(COc3ccc(NC(=O)c4ccccc4C)cc3)nc2s1,-0.63%
6,O=C(CCCCCn1c(=O)[nH]c2ccsc2c1=O)N1CCN(C2CCCCC2)CC1,active: 52.8%
7,CC(C)c1nnc(NC(=O)CC23CC4CC(CC(C4)C2)C3)s1,active: 36.1%
8,Cc1nn(C)c2c1c(C(F)(F)F)cc(=O)n2CC(=O)N1CCCCC1C (stereo not drawn),17.4%
9,CCCOc1ccc(-c2nc(N3CCCCC3)c3ccccc3n2)cc1,1.45%
10,Cc1ccc(-n2ncc(C(=O)Nc3ccc4c(c3)OCO4)c2C2CCN(C(=O)OC(C)(C)C)CC2)c(C)c1,-5.48%
11,CCOC(=O)CSc1nc(C)cc(Oc2ccc(=O)n(C)n2)n1,active: 35.8%
12,Cc1c(C(=O)Nc2ccc(F)c(Cl)c2)oc2ccc(S(=O)(=O)N(C)C3CCCCC3)cc12,-6.84%
13,Cc1oc2ccc(O)c(CN3CCCCC3)c2c1C(=O)Nc1cccc(C(F)(F)F)c1,-1.8%
14,CCc1ccc(OCc2nc(-c3ccc(OC)c(OC)c3)no2)c(Br)c1,-21.1%
15,CC1(C(=O)NC2CCCCC2)Cc2ccccc2C(=O)N1Cc1ccccc1Cl (stereo not drawn),5.41%
16,COc1cc(NC(=O)CCc2nc3cccnc3n2Cc2cccs2)cc(OC)c1OC,-5.24%
17,O=C(CCc1nc2cccnc2n1-c1ccccc1)Nc1ccc(Cl)c(Cl)c1,16.1%
18,CC(=O)c1ccc(N2C(=O)N(Cc3ccccc3C#N)c3ccccc3S2(=O)=O)cc1,-26.8%
19,CN(C)c1ccc(C2C=C(c3ccccc3)Nc3nnnn32)cc1 (stereo not drawn),-1.62%
20,Nn1c(SCC(=O)N2CCCCCC2)nnc1-c1ccncc1,active: 30.1%
21,CCOc1ccc(C(=O)NCC(c2ccc3c(c2)OCO3)N2CCOCC2)cc1 (stereo not drawn),11.6%
22,CCc1ccccc1N(C)C(=O)c1cn(-c2cccc(OC)c2)c(=O)c2ccccc12,1.36%
23,Cc1cccc(CS(=O)(=O)Cc2ccc(C(=O)NCc3cccnc3)o2)c1,active: 33.4%
24,Cc1nc2n(c(=O)c1CCN1CCC(c3noc4cc(F)ccc34)CC1)CCCC2,active: 86.3%
